Screen size: about 310,000 compounds; about 2,200 (0.71%) showed an effect of 50% or more. The effect is printed as a negative number. This is one part of the list.

The target of this assay is human ether-à-go-go-related gene (hERG) potassium channel (human, UniProt Q12809). Nature of the assay: primary screen, population patch clamp on CHO cells stably expressing hERG.
Sequence of human ether-à-go-go-related gene (hERG) potassium channel (Q12809 whole entry, looked up): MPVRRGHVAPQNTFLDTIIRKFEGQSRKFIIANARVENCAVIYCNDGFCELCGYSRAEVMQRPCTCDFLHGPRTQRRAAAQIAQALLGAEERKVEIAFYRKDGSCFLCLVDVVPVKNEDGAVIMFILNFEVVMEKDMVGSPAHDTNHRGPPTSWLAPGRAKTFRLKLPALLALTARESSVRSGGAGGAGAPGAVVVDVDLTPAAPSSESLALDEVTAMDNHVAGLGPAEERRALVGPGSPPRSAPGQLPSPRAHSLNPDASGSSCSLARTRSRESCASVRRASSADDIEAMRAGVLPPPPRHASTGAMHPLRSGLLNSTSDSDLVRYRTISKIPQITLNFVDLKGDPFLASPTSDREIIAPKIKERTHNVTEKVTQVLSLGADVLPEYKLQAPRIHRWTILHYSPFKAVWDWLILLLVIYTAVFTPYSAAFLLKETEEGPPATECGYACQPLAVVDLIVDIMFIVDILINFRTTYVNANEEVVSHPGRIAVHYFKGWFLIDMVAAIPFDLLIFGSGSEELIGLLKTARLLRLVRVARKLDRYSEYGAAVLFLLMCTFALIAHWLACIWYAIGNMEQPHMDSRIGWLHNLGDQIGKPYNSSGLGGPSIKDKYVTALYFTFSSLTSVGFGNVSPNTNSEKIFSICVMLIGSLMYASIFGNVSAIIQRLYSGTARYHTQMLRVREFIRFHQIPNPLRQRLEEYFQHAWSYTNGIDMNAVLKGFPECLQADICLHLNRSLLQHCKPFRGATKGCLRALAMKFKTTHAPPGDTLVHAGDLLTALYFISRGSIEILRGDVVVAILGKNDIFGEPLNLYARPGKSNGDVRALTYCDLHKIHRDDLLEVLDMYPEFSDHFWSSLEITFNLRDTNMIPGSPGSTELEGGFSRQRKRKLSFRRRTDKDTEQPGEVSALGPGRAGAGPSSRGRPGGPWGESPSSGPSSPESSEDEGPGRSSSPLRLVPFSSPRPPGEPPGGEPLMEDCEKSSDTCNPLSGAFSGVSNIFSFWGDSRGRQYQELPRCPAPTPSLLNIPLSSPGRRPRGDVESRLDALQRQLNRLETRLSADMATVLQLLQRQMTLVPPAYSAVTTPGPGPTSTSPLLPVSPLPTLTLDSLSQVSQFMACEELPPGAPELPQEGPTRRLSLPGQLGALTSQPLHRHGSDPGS
Consider `O=C(NCc1cccs1)c1cc2c(s1)CCCC2`, for which the “hERG current change (%, negative = inhibition) at 1uM” value is given as 7.37%.
With `O=C(Cn1nnc(-c2ccccc2F)n1)OCC(=O)c1ccccc1`, the “hERG current change (%, negative = inhibition) at 1uM” value came to 20.1%.
The result for `CC(=O)Cn1cnc2c(sc3nc(C)cc(C)c32)c1=O` reads 14.4%.
The result for `COc1ccc(OC)c(C(=O)c2ccc(C(=O)N3CCN(Cc4csc(C)n4)CC3)cc2)c1` reads 8.66%.
Consider `Cc1cc(C)n(C(=O)c2ccc(Cl)c(F)c2F)n1`, for which the “hERG current change (%, negative = inhibition) at 1uM” value came out at 10.6%.
As for `CC(C(=O)N1CCN(C)CC1)N1C(=O)c2ccccc2C1=O` (stereo not drawn), the “hERG current change (%, negative = inhibition) at 1uM” value is on record as 20.1%.
As for `CCN(CC)C(=O)c1ccc(NC(=O)c2cccc(C(F)(F)F)c2)cc1`, the “hERG current change (%, negative = inhibition) at 1uM” value worked out at 7.85%.
On to `O=C1NC(CCc2ccccc2)C(=O)N1Cc1ccc(Br)cc1` (stereo not drawn), for which the “hERG current change (%, negative = inhibition) at 1uM” value was determined as 0.772%.
Turning to `O=[N+]([O-])c1cccc(/C=N\N2CCN(c3ccc(Cl)cc3)CC2)c1`, the “hERG current change (%, negative = inhibition) at 1uM” value is listed as 13.3%.
The figure for `CC(=O)Oc1ccc(-c2ccc(C(=O)O)cc2)cc1` is 7.28%; for `CC(C)C(c1nnnn1C1CCCC1)N1CCC(C(N)=O)CC1` (stereo not drawn) it is 10.9%.
With `CCOc1ccccc1-n1c(SCC(N)=O)nnc1-c1ccco1`, the “hERG current change (%, negative = inhibition) at 1uM” value is reported as -5.22%.
The result for `O=C(Cc1c(O)c2ccccc2[nH]c1=O)NCc1cccc(F)c1` reads -1.24%.
Take `O=[N+]([O-])c1ccc(N2CCN(Cc3ccc4c(c3)OCO4)CC2)nc1`: the “hERG current change (%, negative = inhibition) at 1uM” value was -29.2%.
The figure for `COc1cc(/C=C/C(=O)OCC(=O)Nc2ccccc2Cl)cc(OC)c1OC` is 12.5%.
Consider `COc1ccccc1-c1nc(SCC(=O)N2CCOCC2)n[nH]1`, for which the “hERG current change (%, negative = inhibition) at 1uM” value came out at 11.4%.
For `CCC(C)[C@H]1CN=C(N)N1CC1CCCCC1` (stereo partly drawn), the “hERG current change (%, negative = inhibition) at 1uM” value is 16.2%.
The result for `C/C(=N\NC(=O)c1nc(C)cc(C)n1)c1ccccc1` reads 2.61%.
The figure for `CN(C)CCCNC(=O)/C(=C\C=C\c1ccccc1)NC(=O)c1ccc([N+](=O)[O-])cc1` is -42%; for `CCOc1ccc(NC(=O)COc2ccc(C(=O)NCc3cccnc3)cc2OC)cc1` it is 15%.
The figure for `CCC(CO)Nc1ncnc2c1cnn2-c1ccc(Cl)cc1` (stereo not drawn) is 3.06%; for `Cc1csc(CNC(=O)c2ccc(OC3CCN(CCc4ccccc4)CC3)cc2)n1` it is 6.97%; for `CN1C(=O)C(O)(CC(=O)/C=C\c2ccc3c(c2)OCO3)c2ccccc21` (stereo not drawn) it is 8.53%.
Consider `C=CCNC(=S)NNC(=O)COc1ccc2cc(Br)ccc2c1`, for which the “hERG current change (%, negative = inhibition) at 1uM” value was found to be 19.6%.
For `O=C(c1ccccc1)c1ccc(OCC(=O)N2CCOCC2)cc1`, the “hERG current change (%, negative = inhibition) at 1uM” value was found to be 3.26%.
The result for `N#CC1=C(N)Nc2ncnn2C1c1ccc([N+](=O)[O-])cc1` (stereo not drawn) reads -1.75%; that for `O=[N+]([O-])c1ncn(Cc2ccccc2Cl)n1`, 17.3%.
For the compound `COc1ccccc1N1CCN(C(=O)c2ccc(N(C)S(=O)(=O)c3ccccc3)cc2)CC1`, the “hERG current change (%, negative = inhibition) at 1uM” value was found to be 5.55%.
On to `N#Cc1c2ncn(CC(=O)c3ccc(Br)cc3)c(=O)c2c2n1CCC2`, for which the “hERG current change (%, negative = inhibition) at 1uM” value was 6.49%.
On to `CC(/C=C1\SC(=S)N(NC(=O)c2ccccc2C)C1=O)=C\c1ccccc1`, for which the “hERG current change (%, negative = inhibition) at 1uM” value is 10.8%.
In the case of `O=C(O)COc1ccc(Nc2ccccc2)cc1`, the “hERG current change (%, negative = inhibition) at 1uM” value is on record as 0.785%.
The result for `CCN(CC)c1ccc(NC(=O)c2ccccc2F)cc1` reads 2.11%.
Turning to `COc1ccccc1NC(=O)c1ccc(NC(=O)CN2C(=O)CN(C)C2=O)cc1`, the “hERG current change (%, negative = inhibition) at 1uM” value was determined as 5.01%.
In the case of `CCOC(=O)C1Cc2c([nH]c3ccccc23)C(C)N1.Cl` (stereo not drawn), the “hERG current change (%, negative = inhibition) at 1uM” value was 9.52%.
The result for `CCOC(=O)C1CCN(C(=O)c2ccc(OCC(=O)Nc3cccc(C(F)(F)F)c3)cc2)CC1` reads -4.74%; that for `CC1CCN(C(=O)CSCc2ccc(Cl)cc2)CC1`, 11.3%.
For `O=C(Nc1ccc(Oc2ccccc2)cc1)c1cnc2n(c1=O)CCS2`, the “hERG current change (%, negative = inhibition) at 1uM” value was determined as 20.6%.
On to `COc1ccc(C(=O)N2CCCC(CCC(=O)N3CCN(c4ccccn4)CC3)C2)cc1` (stereo not drawn), for which the “hERG current change (%, negative = inhibition) at 1uM” value was -3.04%.
For `N#Cc1cc2c(=O)n3ccccc3nc2n(CCCN2CCOCC2)c1=O`, the “hERG current change (%, negative = inhibition) at 1uM” value was -7.49%.
For the compound `COc1ccc(C(=O)c2c3ccc(C(F)(F)F)cc3[n+]([O-])n2CCC[NH3+])cc1.[Cl-]`, the “hERG current change (%, negative = inhibition) at 1uM” value is -63%.
For the compound `Cc1cc[n+](-c2[nH]c(=O)sc2/C=N/NC([S-])=Nc2ccccc2)cc1`, the “hERG current change (%, negative = inhibition) at 1uM” value is on record as 1.35%.
In the case of `Cc1cc(=O)[nH]c(SCC(=O)N2CCCCC2)n1`, the “hERG current change (%, negative = inhibition) at 1uM” value stood at 11.2%.
On to `CC(=O)Nc1ccc(Cl)c(C(N)=O)c1`, for which the “hERG current change (%, negative = inhibition) at 1uM” value was found to be 12.8%.
The figure for `CC(=O)c1ccc(NC(=O)C(Cc2ccccc2)NC(=O)c2ccco2)cc1` (stereo not drawn) is -3.17%; for `COc1cc(-c2nnc(COC(=O)c3ccc(C)o3)o2)cc(OC)c1OC` it is 13.9%.

Source of the values: paper PMC4336329 (PLoS ONE, 2015).
